Results from article doi:10.1101/2021.01.11.425814 (bioRxiv, 2021).

Target: FOXO4 forkhead domain (FHD) (95-195) (human, UniProt P98177 95-195)
Test: ITC

Kd: 2.19 µM
B1: p53 transactivation domain (TAD) ([…]) (domain or fragment)
chain: not shown
